The RNAGym collection of RNA variant scans (doi:10.1093/nar/gkz1192)
Read counts are not given, so values of variants with three or more changes are uncertain.

B1: CPEB3 Ribozyme (parent)
chain: UAACAGGGGGCCACAGCAGAAGCGUUCACGUCGCAGCCCCUGUCAGAUUCUGGUGAAUCUGCGAAUUCUGCUGUAUAUCUC

Variants of: B1
Assay: self-cleavage, relative activity (ratio to wild type); higher = more cleavage; in vitro, sequencing
Procedure, shortened: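 Relative activity compares each variant's cleaved/total read fraction with that of the unmutated ribozyme. To get these fractions, barcoded CPEB3 ribozyme libraries from rounds of error-prone PCR were transcribed with T7 RNA polymerase for 5 hours at 37°C and then given 15 min of DNase I treatment before EDTA was added. The RNAs were reverse transcribed with template switching and sequenced on Illumina, and DNA sequencing linked barcodes to variants. A minimum of 5 reads applied, and three batches were averaged.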

**Q.** With UAACAGGGGGCCACAGCAGGAGCAUUCACGUCGCAGCCCUCGUCAGAUUCUGGUGAAUCUGCGAAUCCUGCUGUAUAUCUC [A20G G24A C40U U41C U67C] as the variant, how does the self-cleavage read?
**A.** 0.18

**Q.** For UAACAGGGGGCCACAGCAGGAGCAUUCACGUCGCAACCCCUGCCAGAUUCUGGUGAAUCUGCGAGUUCUGCAGUAUAUCUC [A20G G24A G36A U43C A65G U72A], which self-cleavage is on record?
**A.** 0.09

**Q.** With UAACAGGGGGCCACAGCAGGAGCACUCACGUAGCAGCCCCUGUCAGAUUCUGGUGAAUCUGCGAAUUCUGCUGUAUAUCUC [A20G G24A U25C C32A] as the variant, how does the self-cleavage read?
**A.** 0.3

**Q.** For UAACAGGGGGCCACAGCAGGAGCAUCCACGUCGCAGCCCCUGUCAGAUUCUGGUGAAUCUGCGAAUUCUGCUGUAUAUCUC [A20G G24A U26C], which self-cleavage is on record?
**A.** 0.06

**Q.** Which self-cleavage does the source give for UAACAGGGGGCCACAGCAGGAGCAUUCACGUCGCAGCCCCCGUCAGAUUCUGGUGAAUCUGCGAAUUCUGCUGUAUAUCUC [A20G G24A U41C] here?
**A.** 0.17

**Q.** With UAACAGGGGGCCACAGCAGGAGCCUACACGUCGCAGCCCCUGUCAGAUUCUGGUGAGUCUGCGAAUUCUGCUGUAUAUCUC [A20G G24C U26A A57G] as the variant, how does the self-cleavage read?
**A.** 0.23

**Q.** With UAACAGGGGGCCACAGCAGGAGCCUUCACGUCGCAGCCCCCGUCAGAUUCUGGUGGAUCCGCGAAUUCUGCUAUAUAUCUC [A20G G24C U41C A56G U60C G73A] as the variant, how does the self-cleavage read?
**A.** 0.04

**Q.** Which self-cleavage does the source give for UAACAGGGGGCCACAGCAGGAGCUUUCGCGUCGCAGCCCCUGUCGGAUUCUGGUGAACCCGCGAAUUCUGCUGUAUAUCUC [A20G G24U A28G A45G U58C U60C] here?
**A.** 0.09

**Q.** With UAACAGGGGGCCACAGCAGGAGCUUUCACGUCGCAGCCCCUGUCUGAUCCUGGUGAAUCUGCGAAUUCAGCUGCAUAUCUC [A20G G24U A45U U49C U69A U74C] as the variant, how does the self-cleavage read?
**A.** 0.06

**Q.** For UAACAGGGGGCCACAGCAGGAGCUUUCACGUGGCAGCCCCUGUCAGAUUCUGGUGAAUCUGCGAAUUCUGCUGUAUAUCUC [A20G G24U C32G], which self-cleavage is on record?
**A.** 0.15

**Q.** Which self-cleavage does the source give for UAACAGGGGGCCACAGCAGGAGCGUUCACAUCGCAGCCCCUGUCGGAUUCUGGUGAAUCCGCGAAUUCUGCUGUAUAUCUC [A20G G30A A45G U60C] here?
**A.** 0.17

**Q.** Which self-cleavage does the source give for UAACAGGGGGCCACAGCAGGAGCGUUCACAUCGCAGCCCCUGUCAGGCUCUGGUGAUUCUGCGAAUUCUGCUGUAUAUCUC [A20G G30A A47G U48C A57U] here?
**A.** 0.07

**Q.** With UAACAGGGGGCCACAGCAGGAGCGUUCACAUCGGAGCCCCUGUCAGAUCCUGGUGAAUCUGCGAAUUCUGCUGUAUAUCUC [A20G G30A C34G U49C] as the variant, how does the self-cleavage read?
**A.** 0.19

**Q.** For UAACAGGGGGCCACAGCAGGAGCGUUCACAUCACAGCCCCUGUCAGGUUCCGGUGAAUCUGCGGAUUCUGCUGUGUAUCUC [A20G G30A G33A A47G U51C A64G A75G], which self-cleavage is on record?
**A.** 0.06

**Q.** With UAACAGGGGGCCACAGCAGGAGCGUUCACACCGCAGCCCCUGUCAGAUUCUGGUGAGUCUGCGAAUUCUGCUGUAUAUCUC [A20G G30A U31C A57G] as the variant, how does the self-cleavage read?
**A.** 0.06

**Q.** Which self-cleavage does the source give for UAACAGGGGGCCACAGCAGGAGCGUUCACUUCGCGGCCCCCGUCAGAUUCUGGAGAUUCUGCGAAUUCUGCUGUAUAUCUC [A20G G30U A35G U41C U54A A57U] here?
**A.** 0.14

**Q.** Which self-cleavage does the source give for UAACAGGGGGCCACAGCAGGAGCGUUCACUUCGCAGCCCCUGUCAGAUUCUGGUGAGUCUGCGAAUUCUGCUGUAUAUCUC [A20G G30U A57G] here?
**A.** 0.06

**Q.** With UAACAGGGGGCCACAGCAGGAGCGUUCACUACGCAGCCCCCGUCAGGUUCUGGAGAAUCUGCGAAUUCUGCUGCAUAUCUC [A20G G30U U31A U41C A47G U54A U74C] as the variant, how does the self-cleavage read?
**A.** 0.27

**Q.** With UAACAGGGGGCCACAGCAGGAGCGUUCACGUCACCGCCCCUGUCAGAUUCUGGUGAAUCUGCGGAUUCUGCUGUAUAUCUC [A20G G33A A35C A64G] as the variant, how does the self-cleavage read?
**A.** 0.13

**Q.** Which self-cleavage does the source give for UAACAGGGGGCCACAGCAGGAGCGUUCACGUCACGGCCCCUGUCAGAUUCUGGUGAAUCUGCAAAUUCUGCUGUAUAUCUC [A20G G33A A35G G63A] here?
**A.** 0.21

**Q.** Which self-cleavage does the source give for UAACAGGGGGCCACAGCAGGAGCGUUCACGUCACAGCCCCUGUCAGAUUCUGGUGAAUCUGCGAAUUCUGAGGUAUAUCUU [A20G G33A C71A U72G C81U] here?
**A.** 0.05

**Q.** For UAACAGGGGGCCACAGCAGGAGCGUUCACGUCACAGCCCCUGUCAAAUUCUGGUGAAUCUGCGAAUUCUGCUGUAUAUCUC [A20G G33A G46A], which self-cleavage is on record?
**A.** 0.42

**Q.** With UAACAGGGGGCCACAGCAGGAGCGUUCACGUCCCAGCCCCCGUCAGAUUCUGGUGAAUCUGCGAAUUCUGCUGUAUAUCUC [A20G G33C U41C] as the variant, how does the self-cleavage read?
**A.** 0

**Q.** With UAACAGGGGGCCACAGCAGGAGCGUUCACGUCCCAGCCCCCGUCUGAUUCUGGUGAAUCUGCGAAUCCUGCCGUAUAUCUC [A20G G33C U41C A45U U67C U72C] as the variant, how does the self-cleavage read?
**A.** 0.04

**Q.** With UAACAGGGGGCCACAGCAGGAGCGUUCACGUCCCAGCCCCCGUCAGAUUCUGGUGGAUCUGCGAAUUCUGCCGUAUAUCUC [A20G G33C U41C A56G U72C] as the variant, how does the self-cleavage read?
**A.** 0.06

**Q.** For UAACAGGGGGCCACAGCAGGAGCGUUCACGUCUCAGCCCCAGUCUGAUUCUGGUGAAUCUGCGAACUCUGCUGUAUAUCUC [A20G G33U U41A A45U U66C], which self-cleavage is on record?
**A.** 0.11

**Q.** Which self-cleavage does the source give for UAACAGGGGGCCACAGCAGGAGCGUUCACGUCGCAACCCCUGUCAGAUUCUGGUGAACCCGCGAAUUCUGCUGUAUAUCUC [A20G G36A U58C U60C] here?
**A.** 0.14

**Q.** For UAACAGGGGGCCACAGCAGGAGCGUUCACGUCGCAACCCCUGUCAGAUUCUGGUGAAUCUGCGAAUCCUGCCGUAUAUCAC [A20G G36A U67C U72C U80A], which self-cleavage is on record?
**A.** 0.23

**Q.** Which self-cleavage does the source give for UAACAGGGGGCCACAGCAGGAGCGUUCACGUCGCACCCCCUGCCAGACUCUGGUGAAUCUGCGUAUCCUGCCGUAUAUCUC [A20G G36C U43C U48C A64U U67C U72C] here?
**A.** 0.19

**Q.** For UAACAGGGGGCCACAGCAGGAGCGUUCACGUCGCAUCCCCUGUCAGAUUCUGGUGAAUCUGCGAAUUCUGCCGUAUAUCCC [A20G G36U U72C U80C], which self-cleavage is on record?
**A.** 0.07

**Q.** With UAACAGGGGGCCACAGCAGGAGCGUUCACGUCGCAGCCCCUAUCAGAAUCUGGUGAAUCUGCGAAUUCUGCCGUAUAUCUC [A20G G42A U48A U72C] as the variant, how does the self-cleavage read?
**A.** 0.23

**Q.** For UAACAGGGGGCCACAGCAGGAGCGUUCACGUCGCAGCCCCUAUCAGAUUCUGGUGAAUCAGCGAAUUCUGCUGUAUAUCUC [A20G G42A U60A], which self-cleavage is on record?
**A.** 0.12

**Q.** Which self-cleavage does the source give for UAACAGGGGGCCACAGCAGGAGCGUUCACGUCGCAGCCCCUGUCACAUCCUGGUGAACCUGUGAAUUCUGCUGUAUACCCC [A20G G46C U49C U58C C62U U78C U80C] here?
**A.** 0

**Q.** With UAACAGGGGGCCACAGCAGGAGCGUUCACGUCGCAGCCCCUGUCAGAUUCUCGUGGAUCUGCGAACUCCGCUGAAUAUCUC [A20G G52C A56G U66C U69C U74A] as the variant, how does the self-cleavage read?
**A.** 0.2
